Laboratory results published in the antibiotic and cytotoxicity screens of Wong et al. (2023).
The other results are listed elsewhere or left out.

Key:
HSkMC = human skeletal muscle cells; experiment: cytotoxicity call (relative viability < 0.9); settings: 10 µM
HepG2 = experiment: cytotoxicity call (relative viability < 0.9); settings: 10 µM
S. aureus RN4220 = experiment: growth inhibition call (relative growth <= 0.2); settings: 50 µM

Row | SMILES | cytotoxicity call (HSkMC) | cytotoxicity call (HepG2) | growth inhibition call (S. aureus RN4220)
1 | C[C@@H]1CCCCO[C@H](CN(C)C(=O)c2ccccc2)[C@@H](C)CN([C@@H](C)CO)C(=O)c2cc(NC(=O)C3CCCCC3)ccc2O1 | inactive | inactive | inactive
2 | Cc1noc(C)c1NC(=O)N(C)C[C@@H]1Oc2c(NC(=O)Nc3cccc4ccccc34)cccc2C(=O)N([C@@H](C)CO)C[C@@H]1C | inactive | inactive | inactive
3 | COc1ccc(S(=O)(=O)N(C)C[C@H]2Oc3cc(-c4ccccc4OC)ccc3S(=O)(=O)N([C@H](C)CO)C[C@H]2C)cc1 | inactive | active | inactive
4 | C[C@@H]1CN([C@@H](C)CO)C(=O)c2cc(NC(=O)Cc3ccccc3)ccc2O[C@@H](C)CCCCO[C@@H]1CN(C)S(=O)(=O)c1cccs1 | inactive | inactive | inactive
5 | COc1ccc(-c2cnc3c(c2)C(=O)N([C@H](C)CO)C[C@H](C)[C@H](CN(C)C(=O)C2CCOCC2)O3)cc1 | inactive | inactive | inactive
6 | C[C@H](CO)N1C[C@H](C)[C@H](CN(C)Cc2ccccc2)OCCCC[C@H](C)Oc2ccc(NS(=O)(=O)c3ccccc3)cc2C1=O | inactive | inactive | inactive
7 | CO[C@@H]1CN(C)C(=O)c2ccc(NC(=O)Nc3ccccc3F)cc2OC[C@@H](C)N(C(=O)Nc2ccccc2F)C[C@H]1C | inactive | inactive | inactive
8 | C[C@H]1CN([C@@H](C)CO)C(=O)c2cc(NC(=O)CCN3CCOCC3)ccc2O[C@H]1CN(C)CC1CCCCC1 | inactive | inactive | inactive
9 | C[C@@H]1CCCCO[C@H](CN(C)C(=O)Nc2ccc(C(F)(F)F)cc2)[C@@H](C)CN([C@H](C)CO)C(=O)c2cc(NC(=O)Nc3ccccc3)ccc2O1 | inactive | inactive | inactive
